The text below walks through data of patent US8633183B2 (priority 2010, dated 2014).

Molecules are shown by their SMILES. Like-named read-outs stand apart in the source and are kept apart here.

The test system of the assay is PC3 (human prostate carcinoma cell line) cells. Briefly: cells.
Where [1] appears, read: PC-3, 72 h, read-out: EC50 PC3 [nM].

Take `CCc1ncnc(-c2ccc(C(C)(C)C#N)cc2)c1C#Cc1ccc(N)nc1` [Example C-1]: the EC50 under setting [1] worked out at 49 nM. On to `Cc1ncnc(-c2ccc(C(C)(C)C#N)cc2)c1C#Cc1ccc(N)nc1` [Example C-2], for which the EC50 under setting [1] amounted to 85 nM. As to `CCc1cc(-c2ncnc(CC)c2C#Cc2ccc(N)nc2)ccn1` [Example C-3], the EC50 under setting [1] was determined as 78 nM. `CCc1ncnc(-c2cc(C)nc(C)c2)c1C#Cc1ccc(N)nc1` [Example C-4]: under setting [1], the EC50 amounted to 60 nM.

On to `CNC(=O)c1ccc(-c2ncnc(C)c2C#Cc2ccc(N)nc2)cc1Cl` [Example C-5], for which the EC50 under setting [1] was determined as 50 nM. In the case of `Cc1ncnc(-c2ccc(C(=O)N(C)C)cc2)c1C#Cc1ccc(N)nc1` [Example C-6], the concentration for a half-maximal effect (EC50) under setting [1] stood at 77 nM.

In the case of `Cc1ncnc(-c2ccccc2)c1C#Cc1ccc(N)nc1` [Example C-7], the EC50 under setting [1] was 163 nM. With `Cc1ncnc(-c2ccc(F)c(C(=O)N(C)C)c2)c1C#Cc1ccc(N)nc1` [Example C-9], the EC50 under setting [1] was 275 nM. For `Cc1ncnc(-c2cccc(C(=O)N(C)C)c2)c1C#Cc1ccc(N)nc1` [Example C-10], the EC50 under setting [1] was 134 nM. As for `Cc1ncnc(-c2ccc(C(=O)N(C)C)c(F)c2)c1C#Cc1ccc(N)nc1` [Example C-11], the EC50 under setting [1] is 67 nM. Same read-out and setting: the result for `CCc1ncnc(-c2ccc(C(=O)NC)c(Cl)c2)c1C#Cc1ccc(N)nc1` [Example C-12] reads 46 nM. Same read-out and setting: the result for `CCc1ncnc(-c2ccccc2)c1C#Cc1ccc(N)nc1` [Example C-13] reads 170 nM.

Consider `CCc1ncnc(-c2ccc(S(C)(=O)=O)cc2)c1C#Cc1ccc(N)nc1` [Example C-14], for which the EC50 under setting [1] stood at 100 nM. Consider `CCc1ncnc(-c2ccc(C(=O)N(C)C)c(F)c2)c1C#Cc1ccc(N)nc1` [Example C-15A], for which the EC50 under setting [1] amounted to 74 nM. Regarding `CCc1ncnc(-c2ccc(F)c(C(=O)N(C)C)c2)c1C#Cc1ccc(N)nc1` [Example C-15], under setting [1], the EC50 worked out at 142 nM. For `CCc1ncnc(-c2ccc(C(=O)NC)c(Cl)c2)c1C#Cc1ccc(C)nc1` [Example C-16], the EC50 under setting [1] came to 627 nM. Consider `CCc1ncnc(-c2ccc(S(C)(=O)=O)cc2)c1C#Cc1ccc(C)nc1` [Example C-17], for which the EC50 under setting [1] was 603 nM. In the case of `CCc1ncnc(-c2ccc(C(=O)N(C)C)cc2)c1C#Cc1ccc(C)nc1` [Example C-18], the EC50 under setting [1] was determined as 612 nM. On to `CCc1ncnc(-c2ccc(C(=O)N(C)C)c(F)c2)c1C#Cc1ccc(C)nc1` [Example C-19], for which the EC50 under setting [1] stood at 506 nM.

As to `Cc1cc(-c2ncnc(C)c2C#Cc2ccc(N)nc2)ccn1` [Example C-20], under setting [1], the EC50 was 191 nM. Consider `Cc1ncnc(-c2ccc(C(F)(F)F)nc2)c1C#Cc1ccc(N)nc1` [Example C-21], for which, under setting [1], the EC50 stood at 265 nM. Regarding `Cc1ncnc(-c2cnc3ccccc3c2)c1C#Cc1ccc(N)nc1` [Example C-22], the EC50 under setting [1] worked out at 163 nM.

On to `COc1ccc(-c2ncnc(C)c2C#Cc2ccc(N)nc2)cn1` [Example C-23], for which the EC50 under setting [1] came to 245 nM. The same measure, in the same setting: the result for `Cc1ccc(-c2ncnc(C)c2C#Cc2ccc(N)nc2)cn1` [Example C-24] reads 153 nM; that for `Cc1ncnc(-c2ccc(N3CCCCC3)nc2)c1C#Cc1ccc(N)nc1` [Example C-25], 407 nM; that for `Cc1ncnc(-c2ccc(C3CC3)nc2)c1C#Cc1ccc(N)nc1` [Example C-26], 170 nM. Regarding `CCc1ncnc(-c2ccnc(C)c2)c1C#Cc1ccc(N)nc1` [Example C-27], the half-maximal effective concentration (EC50) under setting [1] was 138 nM. `CCc1ncnc(-c2ccc(C(F)(F)F)nc2)c1C#Cc1ccc(N)nc1` [Example C-28]: the EC50 under setting [1] is 139 nM.

`CCc1ncnc(-c2cnc3ccccc3c2)c1C#Cc1ccc(N)nc1` [Example C-29]: the concentration giving a half-maximal response (EC50) under setting [1] is 123 nM.

Take `CCc1ncnc(-c2ccc(OC)nc2)c1C#Cc1ccc(N)nc1` [Example C-30]: the EC50 under setting [1] was determined as 178 nM.

Consider `CCc1ncnc(-c2ccc(C)nc2)c1C#Cc1ccc(N)nc1` [Example C-31], for which the EC50 under setting [1] is 133 nM. As to `CCc1ncnc(-c2ccc(N3CCOCC3)nc2)c1C#Cc1ccc(N)nc1` [Example C-32], under setting [1], the EC50 was determined as 95 nM. Take `CCc1ncnc(-c2ccnc(OC)c2)c1C#Cc1ccc(N)nc1` [Example C-33]: under setting [1], the EC50 is 106 nM.

As for `CCc1ncnc(-c2ccc(C3CC3)nc2)c1C#Cc1ccc(N)nc1` [Example C-35], the EC50 under setting [1] is 131 nM. Turning to `CCN(CC)C(=O)c1cccc(-c2ncnc(C)c2C#Cc2ccc(N)nc2)c1` [Example C-36], under setting [1], the EC50 was 590 nM. In the case of `Cc1ncnc(-c2cccc(C(=O)N3CCOCC3)c2)c1C#Cc1ccc(N)nc1` [Example C-37], the EC50 under setting [1] is 644 nM. With `Cc1ncnc(-c2cc(Cl)cc(C(=O)N(C)C)c2)c1C#Cc1ccc(N)nc1` [Example C-38], the EC50 under setting [1] came out at 245 nM.

With `Cc1ncnc(-c2ccc(F)c(C(=O)N3CCOCC3)c2)c1C#Cc1ccc(N)nc1` [Example C-39], the EC50 under setting [1] stood at 255 nM.

With `Cc1ncnc(-c2ccc(Cl)c(C(=O)N3CCOCC3)c2)c1C#Cc1ccc(N)nc1` [Example C-40], the EC50 under setting [1] turned out to be 348 nM. With `Cc1ncnc(-c2ccc(F)c(C(=O)N3CCCCC3)c2)c1C#Cc1ccc(N)nc1` [Example C-41], under setting [1], the EC50 came to 679 nM.

Regarding `Cc1ncnc(-c2ccc(Cl)c(C(=O)N3CCCCC3)c2)c1C#Cc1ccc(N)nc1` [Example C-42], under setting [1], the EC50 came out at 503 nM. Consider `CNC(=O)c1cc(-c2ncnc(C)c2C#Cc2ccc(N)nc2)ccc1F` [Example C-43], for which the EC50 under setting [1] amounted to 463 nM. Consider `CCc1ncnc(-c2cccc(C(=O)N(CC)CC)c2)c1C#Cc1ccc(N)nc1` [Example C-44], for which the EC50 under setting [1] stood at 543 nM. With `CCc1ncnc(-c2ccc(Cl)c(C(=O)N(C)C)c2)c1C#Cc1ccc(N)nc1` [Example C-45, 4-[5-(6-amino-pyridin-3-ylethynyl)-6-methyl-pyrimidin-4-yl]-2-fluoro benzoic acid methyl ester], under setting [1], the EC50 was 90 nM. `CCc1ncnc(-c2ccc(F)c(C(=O)N3CCOCC3)c2)c1C#Cc1ccc(N)nc1` [Example C-46]: under setting [1], the EC50 came to 228 nM. Consider `CCc1ncnc(-c2ccc(Cl)c(C(=O)N(CC)CC)c2)c1C#Cc1ccc(N)nc1` [Example C-47], for which, under setting [1], the EC50 is 517 nM. As to `CCc1ncnc(-c2ccc(Cl)c(C(=O)N3CCCCC3)c2)c1C#Cc1ccc(N)nc1` [Example C-48], the EC50 under setting [1] was 747 nM. As to `CCc1ncnc(-c2ccc(Cl)c(C(=O)NC)c2)c1C#Cc1ccc(N)nc1` [Example C-49], the concentration for a half-maximal effect (EC50) under setting [1] worked out at 506 nM. With `CCc1ncnc(-c2cccc(C(=O)NC)c2)c1C#Cc1ccc(N)nc1` [Example C-50], the EC50 under setting [1] was determined as 212 nM. With `CCc1ncnc(-c2ccc(C(=O)N(C)CCCOC)c(F)c2)c1C#Cc1ccc(N)nc1` [Example D-1], the concentration for a half-maximal effect (EC50) (read-out: EC50 PC3) is 77 nM. For the compound `CCc1ncnc(-c2ccc(C(=O)N(C)C3CCN(C)CC3)c(F)c2)c1C#Cc1ccc(N)nc1` [Example D-3], under “read-out: EC50 PC3”, the EC50 turned out to be 217 nM. For `CCc1ncnc(-c2ccc(C(=O)N(C)CCCO)c(F)c2)c1C#Cc1ccc(N)nc1` [Example D-4], under “read-out: EC50 PC3”, the EC50 was determined as 33 nM. Same read-out and setting: the value for `CCc1ncnc(-c2ccc(C(=O)NC)c(F)c2)c1C#Cc1ccc(N)nc1` [Example D-5] was 125 nM.

`CCc1ncnc(-c2ccc(C(=O)N(C)CCOC)c(F)c2)c1C#Cc1ccc(N)nc1` [Example D-7]: for the setting “read-out: EC50 PC3”, the EC50 came to 24 nM. The same measure, in the same setting: the value for `CCc1ncnc(-c2ccc(C(=O)N3CCN(C)CC3)c(F)c2)c1C#Cc1ccc(N)nc1` [Example D-8] was 49 nM; that for `CCc1ncnc(-c2ccc(C(=O)N(C)CCCN(C)C)c(F)c2)c1C#Cc1ccc(N)nc1` [Example D-9] was 140 nM; that for `CCc1ncnc(-c2ccc(C(=O)N3CCCCC3)c(F)c2)c1C#Cc1ccc(N)nc1C` [Example D-10] was 42 nM. Take `CCc1ncnc(-c2ccc(C(=O)N3CCN(CC(F)F)CC3)c(F)c2)c1C#Cc1ccc(N)nc1C` [Example D-12]: the EC50 (read-out: EC50 PC3) was found to be 45 nM. In the case of `CCc1ncnc(-c2ccc(C(=O)N3CCN(C4CC4)CC3)c(F)c2)c1C#Cc1ccc(N)nc1C` [Example D-13], the EC50 (read-out: EC50 PC3) worked out at 53 nM. Turning to `CCc1ncnc(-c2ccc(C(=O)N3CCC(C(F)(F)F)CC3)c(F)c2)c1C#Cc1ccc(N)nc1C` [Example D-14], for the setting “read-out: EC50 PC3”, the EC50 stood at 72 nM. Regarding `CCc1ncnc(-c2ccc(C(=O)N3CCN(CC4CCCO4)CC3)c(F)c2)c1C#Cc1ccc(N)nc1C` [Example D-16], the EC50 (read-out: EC50 PC3) came to 67 nM. On to `CCc1ncnc(-c2ccc(C(=O)N3CCN(C4CCS(=O)(=O)C4)CC3)c(F)c2)c1C#Cc1ccc(N)nc1C` [Example D-17], for which the EC50 (read-out: EC50 PC3) is 76 nM.

For the compound `CCc1ncnc(-c2ccc(C(=O)N3CCN4CCCCC4C3)c(F)c2)c1C#Cc1ccc(N)nc1C` [Example D-18], for the setting “read-out: EC50 PC3”, the EC50 worked out at 41 nM. Still for that read-out and setting: the value for `CCc1ncnc(-c2ccc(C(=O)N3CCN(S(=O)(=O)CC)CC3)c(F)c2)c1C#Cc1ccc(N)nc1C` [Example D-19] was 30 nM; that for `CCc1ncnc(-c2ccc(C(=O)N3CCOCC3)c(F)c2)c1C#Cc1ccc(N)nc1C` [Example D-20] was 14 nM.

As to `CCc1ncnc(-c2ccc(C(=O)N3CCN(C)CC3)c(F)c2)c1C#Cc1ccc(N)nc1C` [Example D-21], the half-maximal effective concentration (EC50) (read-out: EC50 PC3) stood at 27 nM. As to `CCc1ncnc(-c2ccc(C(=O)N3CCN(CC4CCCCC4)CC3)c(F)c2)c1C#Cc1ccc(N)nc1C` [Example D-22], the EC50 (read-out: EC50 PC3) came out at 355 nM. As for `CCc1ncnc(-c2ccc(C(=O)N3CCN(CC(=O)N(C)C)CC3)c(F)c2)c1C#Cc1ccc(N)nc1C` [Example D-23], for the setting “read-out: EC50 PC3”, the EC50 worked out at 41 nM. On to `CCc1ncnc(-c2ccc(C(=O)N3CCN(Cc4ccccc4)CC3)c(F)c2)c1C#Cc1ccc(N)nc1C` [Example D-24], for which the EC50 (read-out: EC50 PC3) was determined as 52 nM.

With `CCc1ncnc(-c2ccc(C(=O)N3CCN(c4ccccc4)CC3)c(F)c2)c1C#Cc1ccc(N)nc1C` [Example D-25], under “read-out: EC50 PC3”, the EC50 was found to be 55 nM. For `CCc1ncnc(-c2ccc(C(=O)N3CCN(CCN(C)C)CC3)c(F)c2)c1C#Cc1ccc(N)nc1C` [Example D-26], the EC50 (read-out: EC50 PC3) stood at 140 nM. Take `CCCCN1CCN(C(=O)c2ccc(-c3ncnc(CC)c3C#Cc3ccc(N)nc3)cc2Cl)CC1` [Example D-29]: the EC50 (read-out: EC50 PC3) is 56 nM.

As for `CCc1ncnc(-c2ccc(C(=O)N(C)CCCOC)c(Cl)c2)c1C#Cc1ccc(N)nc1` [Example D-30], the EC50 (read-out: EC50 PC3) is 71 nM. As for `CCc1ncnc(-c2ccc(C(=O)N3CCN(C4CCOCC4)CC3)c(Cl)c2)c1C#Cc1ccc(N)nc1` [Example D-31], the EC50 (read-out: EC50 PC3) stood at 23 nM.
